{
  "source": "the BET-seq Pho4 binding data (Le et al. 2018)",
  "note": "The list shows a part of the results. These are noisy estimates, calculated here from bound and input reads.",
  "data": [
    {"target": "T1, Pho4 (S. cerevisiae) (UniProt P07270)", "T1 sequence": "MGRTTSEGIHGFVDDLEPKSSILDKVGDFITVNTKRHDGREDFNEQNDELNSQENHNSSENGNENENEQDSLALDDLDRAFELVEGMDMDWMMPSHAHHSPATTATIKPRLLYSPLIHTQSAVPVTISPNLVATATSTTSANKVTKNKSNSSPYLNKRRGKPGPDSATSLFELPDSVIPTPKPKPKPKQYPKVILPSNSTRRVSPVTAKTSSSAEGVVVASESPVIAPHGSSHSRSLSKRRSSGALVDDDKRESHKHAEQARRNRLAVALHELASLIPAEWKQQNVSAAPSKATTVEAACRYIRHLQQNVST", "experiment": "relative binding free energy (BET-seq); higher = weaker binding", "conditions": "reference: library average", "units": {"relative binding free energy": "kcal/mol"}, "values": [
      {"sequence": "TGTTTCACGTGGCCTA", "relative binding free energy": 0.24},
      {"sequence": "AGGGTCACGTGGCGTT", "relative binding free energy": 0.15},
      {"sequence": "TTCTTCACGTGTTATG", "relative binding free energy": 0.18},
      {"sequence": "TTTGACACGTGTTCTC", "relative binding free energy": 0.21},
      {"sequence": "TTCGTCACGTGTGCTG", "relative binding free energy": 0.13},
      {"sequence": "TGGAGCACGTGTCTGG", "relative binding free energy": -0.07},
      {"sequence": "TATGGCACGTGGCGTA", "relative binding free energy": -0.1},
      {"sequence": "TTGCGCACGTGATATG", "relative binding free energy": 0.11},
      {"sequence": "GGTGTCACGTGTAGAC", "relative binding free energy": 0.28},
      {"sequence": "TTGAACACGTGCAAGG", "relative binding free energy": 0.15},
      {"sequence": "TGGTACACGTGCGTAT", "relative binding free energy": 0.01},
      {"sequence": "AGGAACACGTGTAGGG", "relative binding free energy": 0.12},
      {"sequence": "TTTTGCACGTGACGTA", "relative binding free energy": 0.02},
      {"sequence": "TTCGGCACGTGGCTGT", "relative binding free energy": -0.12},
      {"sequence": "TTAGTCACGTGTTCAT", "relative binding free energy": 0.16},
      {"sequence": "TATGTCACGTGAGTTC", "relative binding free energy": 0.35},
      {"sequence": "TATTACACGTGTGGGA", "relative binding free energy": 0.17},
      {"sequence": "TTAGGCACGTGGTTTC", "relative binding free energy": -0.14},
      {"sequence": "ATTTTCACGTGATTAC", "relative binding free energy": 0.27},
      {"sequence": "TGTGCCACGTGGTGAT", "relative binding free energy": -0.25},
      {"sequence": "AACGGCACGTGCGGGT", "relative binding free energy": -0.1},
      {"sequence": "ATTTGCACGTGTTTTC", "relative binding free energy": 0.09},
      {"sequence": "GGGGCCACGTGTGGAT", "relative binding free energy": 0.08},
      {"sequence": "GAGGTCACGTGTTGCG", "relative binding free energy": 0.13},
      {"sequence": "GGTTGCACGTGAGCCG", "relative binding free energy": 0.24},
      {"sequence": "TGGTCCACGTGGTCGT", "relative binding free energy": -0.02},
      {"sequence": "GGTCGCACGTGGTAAT", "relative binding free energy": 0.02},
      {"sequence": "GGGCACACGTGTGCTG", "relative binding free energy": 0.1},
      {"sequence": "GGGCGCACGTGAAGGA", "relative binding free energy": 0.29},
      {"sequence": "GTCGTCACGTGAGTGG", "relative binding free energy": 0.2},
      {"sequence": "TTTGACACGTGACTGG", "relative binding free energy": 0.09},
      {"sequence": "TTATACACGTGATTTA", "relative binding free energy": 0.1},
      {"sequence": "GGAGTCACGTGCCTGT", "relative binding free energy": 0.11},
      {"sequence": "TTTGACACGTGTTCAA", "relative binding free energy": 0.03},
      {"sequence": "TTATGCACGTGTAGTT", "relative binding free energy": 0.02},
      {"sequence": "TCCTACACGTGTTGGT", "relative binding free energy": 0.15},
      {"sequence": "TGAGTCACGTGGGTCC", "relative binding free energy": 0},
      {"sequence": "CGGTACACGTGTTATT", "relative binding free energy": -0.01},
      {"sequence": "GTAGACACGTGTTTGG", "relative binding free energy": -0.08},
      {"sequence": "GTTGACACGTGGGGGC", "relative binding free energy": -0.13},
      {"sequence": "GAGGTCACGTGATATT", "relative binding free energy": 0.28},
      {"sequence": "CATGTCACGTGGGTGG", "relative binding free energy": 0},
      {"sequence": "GTTCGCACGTGCGGTG", "relative binding free energy": -0.04},
      {"sequence": "TAGGACACGTGTGGCA", "relative binding free energy": 0.01},
      {"sequence": "TTGTGCACGTGCGGCA", "relative binding free energy": -0.17},
      {"sequence": "TTAAGCACGTGGCGCG", "relative binding free energy": -0.25},
      {"sequence": "CGGCGCACGTGATGGG", "relative binding free energy": 0.13},
      {"sequence": "GAGGTCACGTGGCGAT", "relative binding free energy": 0.09},
      {"sequence": "TGGTGCACGTGAGCGG", "relative binding free energy": 0.1},
      {"sequence": "GGATCCACGTGGTGTA", "relative binding free energy": 0.02},
      {"sequence": "GTACGCACGTGCGTGT", "relative binding free energy": -0.04},
      {"sequence": "GAGGTCACGTGTCGGT", "relative binding free energy": 0.15},
      {"sequence": "TTGGTCACGTGGGAGA", "relative binding free energy": 0.05},
      {"sequence": "TTAGTCACGTGAAGGT", "relative binding free energy": 0.31},
      {"sequence": "CTTTGCACGTGATGAG", "relative binding free energy": 0.24},
      {"sequence": "TACGACACGTGTAAGG", "relative binding free energy": 0.22},
      {"sequence": "GGTGTCACGTGTTAAT", "relative binding free energy": 0.21},
      {"sequence": "TGTTTCACGTGAAACG", "relative binding free energy": 0.21},
      {"sequence": "AGAACCACGTGGGGTT", "relative binding free energy": -0.2},
      {"sequence": "TTTTGCACGTGAGTTT", "relative binding free energy": 0.24},
      {"sequence": "TGGGTCACGTGCTTAA", "relative binding free energy": -0.07},
      {"sequence": "GGTGTCACGTGTGCCG", "relative binding free energy": 0.09},
      {"sequence": "CTAGACACGTGTATGT", "relative binding free energy": -0.03},
      {"sequence": "GTTAACACGTGGGCAT", "relative binding free energy": -0.14},
      {"sequence": "ATGGTCACGTGCGGTG", "relative binding free energy": -0.06},
      {"sequence": "CATAGCACGTGGGGCA", "relative binding free energy": -0.09},
      {"sequence": "GTAAACACGTGAGGTG", "relative binding free energy": 0.25},
      {"sequence": "GTAATCACGTGTAGTT", "relative binding free energy": 0.26},
      {"sequence": "AAATGCACGTGAGGTG", "relative binding free energy": 0.17},
      {"sequence": "CTTTGCACGTGGTTGA", "relative binding free energy": 0},
      {"sequence": "AGAGGCACGTGGAATG", "relative binding free energy": -0.11},
      {"sequence": "TTATGCACGTGTTTTA", "relative binding free energy": -0.02},
      {"sequence": "TAAGGCACGTGACGGA", "relative binding free energy": 0.02},
      {"sequence": "AATTGCACGTGTGGGC", "relative binding free energy": 0.05},
      {"sequence": "TGGGACACGTGGGGGT", "relative binding free energy": -0.09},
      {"sequence": "GTCGACACGTGTAGGG", "relative binding free energy": 0},
      {"sequence": "TGGTTCACGTGACGGA", "relative binding free energy": 0.31},
      {"sequence": "ATTGACACGTGTGCTA", "relative binding free energy": 0.05},
      {"sequence": "GGCTGCACGTGTAGTT", "relative binding free energy": 0.03},
      {"sequence": "TTTGTCACGTGGGGCG", "relative binding free energy": 0.01},
      {"sequence": "CTGTGCACGTGATGAG", "relative binding free energy": 0},
      {"sequence": "GTGTCCACGTGTGATT", "relative binding free energy": 0.13},
      {"sequence": "TATACCACGTGAGGGG", "relative binding free energy": 0.01},
      {"sequence": "AGGTGCACGTGAATTT", "relative binding free energy": 0.34},
      {"sequence": "AGTCGCACGTGAGTGT", "relative binding free energy": 0.21},
      {"sequence": "TTATACACGTGGAAGT", "relative binding free energy": 0.15},
      {"sequence": "TTAGACACGTGGCCGG", "relative binding free energy": -0.1},
      {"sequence": "GTTTGCACGTGAGGTA", "relative binding free energy": 0.28},
      {"sequence": "GATGGCACGTGAGGGT", "relative binding free energy": 0.31},
      {"sequence": "TGGTACACGTGCTGGT", "relative binding free energy": 0.1},
      {"sequence": "TGGTGCACGTGTTTCG", "relative binding free energy": 0.04},
      {"sequence": "AGTGACACGTGTAGTG", "relative binding free energy": 0.22},
      {"sequence": "AGTTGCACGTGCAATT", "relative binding free energy": 0.05},
      {"sequence": "GATGTCACGTGATGCG", "relative binding free energy": 0.26},
      {"sequence": "GATGGCACGTGCGGAT", "relative binding free energy": -0.09},
      {"sequence": "GTAGCCACGTGTGTTT", "relative binding free energy": 0.02},
      {"sequence": "CTAGTCACGTGGGGAA", "relative binding free energy": -0.02},
      {"sequence": "CTTGGCACGTGCGGAG", "relative binding free energy": -0.08},
      {"sequence": "CTGCGCACGTGGTAGG", "relative binding free energy": -0.2},
      {"sequence": "GGGGCCACGTGGCCTG", "relative binding free energy": -0.09},
      {"sequence": "ACATTCACGTGGGAGG", "relative binding free energy": 0.13},
      {"sequence": "TTATTCACGTGCGGCG", "relative binding free energy": 0.14},
      {"sequence": "ATTGACACGTGGTACT", "relative binding free energy": -0.02},
      {"sequence": "GTAGACACGTGTGGGA", "relative binding free energy": 0},
      {"sequence": "AAGTTCACGTGGTGCT", "relative binding free energy": 0.24},
      {"sequence": "AAAGGCACGTGTGTAG", "relative binding free energy": -0.03},
      {"sequence": "TAAGACACGTGTAGGT", "relative binding free energy": -0.02},
      {"sequence": "GAGTGCACGTGTGTCG", "relative binding free energy": -0.01},
      {"sequence": "ATGGTCACGTGGTGAC", "relative binding free energy": 0.01},
      {"sequence": "ACGATCACGTGTGGGG", "relative binding free energy": 0.22},
      {"sequence": "GTGGACACGTGCTGGC", "relative binding free energy": 0.04},
      {"sequence": "AACTCCACGTGTGGGG", "relative binding free energy": 0.12},
      {"sequence": "TGGTCCACGTGTTAGA", "relative binding free energy": 0.05},
      {"sequence": "GGGGACACGTGATCGG", "relative binding free energy": 0.19},
      {"sequence": "AAGGTCACGTGGAGTT", "relative binding free energy": 0.2}
    ]}
  ]
}
